The list shows a part of the results.
Key:
HSkMC = human skeletal muscle cells; assay: cytotoxicity call (relative viability < 0.9); details: 10 µM
HepG2 = assay: cytotoxicity call (relative viability < 0.9); details: 10 µM
S. aureus RN4220 = assay: growth inhibition call (relative growth <= 0.2); details: 50 µM

Row | Structure (SMILES) | cytotoxicity call (HSkMC) | cytotoxicity call (HepG2) | growth inhibition call (S. aureus RN4220)
1 | C[C@@H]1CCCCO[C@@H](CN(C)S(=O)(=O)c2ccc(Cl)cc2)[C@@H](C)CN([C@@H](C)CO)C(=O)c2cc(NC(=O)NC3CCCCC3)ccc2O1 | inactive | active | inactive
2 | C[C@H](CO)N1C[C@H](C)[C@@H](CN(C)C(=O)Nc2cccc3ccccc23)OCc2cnnn2CCCC1=O | inactive | inactive | inactive
3 | C[C@@H]1CCCCO[C@@H](CN(C)C(=O)Nc2ccc(C(F)(F)F)cc2)[C@H](C)CN([C@@H](C)CO)C(=O)c2cc(NS(=O)(=O)c3ccccc3)ccc2O1 | inactive | inactive | inactive
4 | C[C@@H]1CCCCO[C@@H](CN(C)C(=O)Nc2ccc(C(F)(F)F)cc2)[C@H](C)CN([C@H](C)CO)C(=O)c2cc(NC(=O)c3ccncc3)ccc2O1 | inactive | inactive | inactive
5 | Cc1noc(C)c1NC(=O)N(C)C[C@@H]1Oc2c(NC(=O)Nc3ccc(C(F)(F)F)cc3)cccc2C(=O)N([C@H](C)CO)C[C@@H]1C | inactive | inactive | inactive
6 | CN(C)CC(=O)N[C@@H]1CC[C@@H](CC(=O)O)O[C@H]1CO | inactive | inactive | inactive
7 | COc1ccc(S(=O)(=O)N(C)C[C@@H]2Oc3c(cccc3N(C)C)C(=O)N([C@H](C)CO)C[C@H]2C)cc1 | inactive | inactive | inactive
8 | O=C(/C=C/c1ccc(O)c(O)c1)O[C@@H]1[C@H](O)C[C@@](O)(C(=O)O)C[C@H]1OC(=O)/C=C/c1ccc(O)c(O)c1 | inactive | inactive | inactive
9 | O=C(C[C@H]1C[C@H]2c3cc(NC(=O)NC4CCCC4)ccc3O[C@H]2[C@@H](CO)O1)NCc1ccc(Oc2ccccc2)cc1 | inactive | inactive | inactive
10 | CC(=O)N[C@@H](CS)C(=O)O | inactive | inactive | inactive
11 | C[C@H]1CCCCO[C@H](CN(C)C(=O)Cc2ccccc2)[C@@H](C)CN([C@@H](C)CO)C(=O)c2cc(NS(=O)(=O)c3ccc(F)cc3)ccc2O1 | inactive | inactive | inactive
12 | C[C@@H]1CN([C@H](C)CO)C(=O)CCCn2nncc2CO[C@@H]1CN(C)S(=O)(=O)c1ccc2ccccc2c1 | inactive | inactive | inactive
13 | CN1C(=O)c2cc(NC(=O)c3cnccn3)ccc2OC[C@H]2O[C@@H](CC(=O)Nc3cc(F)ccc3F)CC[C@@H]21 | inactive | inactive | inactive
14 | COc1ccc(CN(C)C[C@H]2OCCCC[C@@H](C)Oc3ccc(NS(=O)(=O)c4cccs4)cc3C(=O)N([C@@H](C)CO)C[C@@H]2C)cc1 | inactive | inactive | inactive
15 | C[C@H](CO)N1C[C@H](C)[C@@H](CN(C)C(=O)Nc2cccc3ccccc23)Oc2c(NC(=O)c3nc4ccccc4s3)cccc2C1=O | active | active | inactive
16 | COc1ccc(S(=O)(=O)Nc2ccc3c(c2)C(=O)N([C@H](C)CO)C[C@@H](C)[C@H](CN(C)C(=O)Nc2ccc4c(c2)OCO4)OCCCC[C@@H](C)O3)cc1 | inactive | inactive | inactive
17 | CC(C)N1C[C@@H](C)[C@H](CN(C)Cc2ccc(OCCCC(F)(F)C(F)(F)C(F)(F)C(F)(F)C(F)(F)C(F)(F)C(F)(F)C(F)(F)F)cc2)Oc2c(NC(=O)c3ccncc3)cccc2C1=O | inactive | inactive | inactive
18 | C[C@H]1CN([C@@H](C)CO)C(=O)c2cccc(NC(=O)Nc3ccc(C(F)(F)F)cc3)c2O[C@@H]1CN(C)S(=O)(=O)c1ccc(F)cc1 | inactive | inactive | inactive
19 | C[C@@H]1CN([C@@H](C)CO)C(=O)c2cc(NC(=O)C3CC3)ccc2O[C@H]1CN(C)S(=O)(=O)c1ccc(F)cc1 | inactive | inactive | inactive
20 | C[C@@H]1CN([C@@H](C)CO)C(=O)Cc2cc(NC(=O)Nc3cccc4ccccc34)ccc2O[C@@H]1CN(C)Cc1ccc(C(F)(F)F)cc1 | inactive | active | inactive
21 | COc1ccccc1C(=O)Nc1ccc2c(c1)C(=O)N(C)[C@H]1CC[C@H](CC(=O)NCc3ccc(Cl)c(Cl)c3)O[C@H]1CO2 | inactive | active | inactive
22 | C[C@@H]1CCCCO[C@@H](CN(C)C(=O)Nc2ccccc2)[C@H](C)CN([C@H](C)CO)C(=O)c2cc(NS(=O)(=O)c3ccc(Cl)cc3)ccc2O1 | inactive | inactive | inactive
23 | C[C@@H]1CN([C@@H](C)CO)C(=O)Cc2cc(NS(=O)(=O)c3ccc(Cl)cc3)ccc2O[C@@H]1CN(C)S(C)(=O)=O | inactive | inactive | inactive
24 | C[C@@H]1CN([C@@H](C)CO)C(=O)Cc2cc(NC(=O)CCC(F)(F)F)ccc2O[C@H]1CN(C)C(=O)Nc1cccc2ccccc12 | inactive | inactive | inactive
25 | C[C@@H]1CN([C@@H](C)CO)C(=O)c2cc(NC(=O)CCN3CCOCC3)ccc2O[C@@H]1CN(C)CC1CCCCC1 | inactive | inactive | inactive
26 | C[C@@H]1CN([C@@H](C)CO)C(=O)c2c(c3ccccc3n2C)-c2ccccc2CO[C@H]1CN(C)C(=O)Nc1ccc(F)cc1 | inactive | inactive | inactive
27 | COc1cccc(-c2ccc3c(c2)O[C@H](CN(C)C(=O)C2CC2)[C@H](C)CN([C@@H](C)CO)S3(=O)=O)c1 | inactive | inactive | inactive

Row | Structure (SMILES) | cytotoxicity call (HSkMC) | cytotoxicity call (HepG2) | growth inhibition call (S. aureus RN4220)
28 | Cc1ccc(S(=O)(=O)N(C)C[C@@H]2Oc3c(NC(=O)C4CC4)cccc3C(=O)N([C@@H](C)CO)C[C@@H]2C)cc1 | inactive | inactive | inactive
29 | C[C@H]1CN([C@@H](C)CO)C(=O)c2c(c3ccccc3n2C)-c2ccccc2CO[C@@H]1CN(C)Cc1ccc2c(c1)OCCN2C | inactive | active | inactive
30 | Cc1ccc(S(=O)(=O)N(C)C[C@H]2OCCCC[C@H](C)Oc3ccc(NC(=O)Nc4ccc5c(c4)OCO5)cc3C(=O)N([C@@H](C)CO)C[C@H]2C)cc1 | inactive | inactive | inactive
31 | COc1ccc2c3c([nH]c2c1)[C@@H](CO)N(CC1CCCC1)C[C@]13CCN(CC1)C(=O)c1ccc(cc1)F | active | inactive | inactive
32 | COc1cccc(C#Cc2ccc3c(c2)O[C@H](CN(C)S(=O)(=O)c2ccccc2F)[C@@H](C)CN([C@@H](C)CO)S3(=O)=O)c1 | inactive | inactive | inactive
33 | C[C@@H]1CN([C@H](C)CO)C(=O)c2cc(NC(=O)Cc3cn(C)c4ccccc34)ccc2O[C@@H]1CN(C)C(=O)Nc1ccc(C(F)(F)F)cc1 | inactive | inactive | inactive
34 | Cc1cccc2[nH]c(CN)nc12 | inactive | inactive | inactive
35 | COC(=O)CCC(=O)OC | inactive | inactive | inactive
36 | Cn1cnc2c(C(F)(F)F)nc(N)nc21 | inactive | inactive | inactive
37 | NCc1cccc(-c2ccco2)c1 | inactive | inactive | inactive
38 | C[C@H](CO)N1C[C@H](C)[C@@H](CN(C)Cc2ccc(Oc3ccccc3)cc2)Oc2ccc(NS(=O)(=O)c3ccccc3)cc2CC1=O | inactive | inactive | inactive
39 | CN1CCN(C(=O)C[C@H]2CC[C@H]3[C@@H](COC[C@H](O)CN3C(=O)Nc3cc(Cl)cc(Cl)c3)O2)CC1 | inactive | inactive | inactive
40 | O.OCC(O)C(O)C(OC1OC(CO)C(O)C(O)C1O)C(O)CO (configuration not stated) | inactive | inactive | inactive
41 | COc1cccc(S(=O)(=O)N[C@H]2CC[C@H](CCn3cc(-c4ccccc4OC)nn3)O[C@@H]2CO)c1 | inactive | inactive | inactive
42 | CC(O)C(=O)[O-].[Na+] (configuration not stated) | inactive | inactive | inactive
43 | C[C@@H]1CN([C@@H](C)CO)C(=O)Cc2cc(NC(=O)Nc3ccccc3)ccc2O[C@@H]1CN(C)Cc1ccc(C(=O)Nc2ccccc2N)cc1 | inactive | inactive | inactive
44 | CC(C)C[C@@H](NS(=O)(=O)c1ccc2[nH]c(=O)c(=O)[nH]c2c1)C(=O)O | inactive | inactive | inactive
45 | COc1ccc(NC(=O)N(C)C[C@H]2OCCCC[C@H](C)Oc3ccc(NC(=O)Nc4ccc(C(F)(F)F)cc4)cc3C(=O)N([C@@H](C)CO)C[C@H]2C)cc1 | inactive | inactive | inactive
46 | O=C(C[C@H]1CC[C@@H]2[C@H](COC[C@@H](O)CN2C(=O)Nc2cccc(Cl)c2)O1)NCc1ccccc1F | inactive | active | active
47 | COc1ccccc1CNC(=O)C[C@H]1C[C@@H]2c3cc(NC(=O)c4ccc5c(c4)OCO5)ccc3O[C@@H]2[C@@H](CO)O1 | inactive | inactive | inactive
48 | O=C(N[C@@H]1CC[C@@H](CCn2cc(C3(O)CCCC3)nn2)O[C@@H]1CO)C1CCOCC1 | inactive | inactive | inactive
49 | CCCc1nn(C)c2c(=O)[nH]c(-c3cc(S(=O)(=O)N4CCN(C)CC4)ccc3OCC)nc12.O=C(O)CC(O)(CC(=O)O)C(=O)O | inactive | active | inactive
50 | CC(C)NC(=O)Nc1ccc2c(c1)C(=O)N([C@@H](C)CO)C[C@H](C)[C@H](CN(C)S(=O)(=O)c1cn(C)cn1)OCCCC[C@@H](C)O2 | inactive | inactive | inactive
51 | C[C@@H]1CN([C@@H](C)CO)C(=O)c2cc(NC(=O)Nc3ccc(C(F)(F)F)cc3)ccc2O[C@@H]1CN(C)C(=O)Nc1ccc2c(c1)OCO2 | active | active | inactive
52 | O=C(C[C@@H]1CC[C@@H]2[C@H](COC[C@@H](O)CN2Cc2ccccc2F)O1)N[C@@H]1CCN(Cc2ccccc2)C1 | inactive | inactive | inactive
53 | C[C@H](CO)N1C[C@H](C)[C@H](CN(C)C(=O)Nc2cccc3ccccc23)OCCCC[C@H](C)Oc2ccc(NC(=O)CCC(F)(F)F)cc2C1=O | inactive | inactive | inactive
54 | CCOC(=O)CCCCCC(=O)Nc1ccc2c(c1)C(=O)N([C@H](C)CO)C[C@@H](C)[C@@H](CN(C)S(=O)(=O)c1ccc(C)cc1)OCCCC[C@H](C)O2 | inactive | inactive | inactive

Source: the antibiotic and cytotoxicity screens of Wong et al. (2023)
